{"source": "the supplement of paper PMC11417369", "note": "± gives the standard deviation of the averaged measurements. The list shows a part of the results.", "data": [{"system": "PfAP2-I AP2 domain 3 (GST-tagged)", "assay": "gcPBM binding intensity (ln(normalized median fluorescence intensity)); higher = stronger DNA binding", "in_short": "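Binding of GST-tagged P. falciparum DNA-binding domains, expressed in E. coli and used at about 25 μg on average, was carried out for 1 h in 1× PBS containing 1% milk, 0.2 mg/ml BSA, 0.5% salmon testes DNA and 0.03% Triton X-100. The target was an Agilent 4 × 180k array of primer-extended double-stranded 36-bp intergenic genomic probes plus negative controls, read with Alexa488 anti-GST antibody at 488 nm. Binding intensity is the highest Masliner-normalised natural-log median intensity across replicate spots of either probe orientation.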", "values": [{"sequence": "TTTTTTTTTTTTTGTGTGCACCTTATTTTTTTGTAT [GTGCAC_site9617]", "gcPBM binding intensity (ln)": "10.7 ± 0.57"}, {"sequence": "CAAACACCCAAACACACACACACATACATACATACA [CACACA_site8044]", "gcPBM binding intensity (ln)": "9.03 ± 0.4"}, {"sequence": "CTATTGTTAAATATAATACACACGTTTTTAAAAATA [CACACA_site2183]", "gcPBM binding intensity (ln)": "7.78 ± 0.46"}, {"sequence": "ATAGTAATGCATAAATATATATTATATATATATATA [XGTACX_negctrl_site576]", "gcPBM binding intensity (ln)": "9.21 ± 0.49"}, {"sequence": "GTATATATTTTGTATTCATTTGTCACATATAATAGA [CACACA_negctrl_site506]", "gcPBM binding intensity (ln)": "7.97 ± 0.57"}, {"sequence": "TCTTTCTCTCTTCAAAGTACATATAATATATACTTC [XGTACX_site7982]", "gcPBM binding intensity (ln)": "7.88 ± 0.52"}, {"sequence": "CAGTTAATGTTGGTACTTTATATAAAAATGATATGA [CACACA_negctrl_site1600]", "gcPBM binding intensity (ln)": "7.88 ± 0.45"}, {"sequence": "ATAACAACATTTGATAAACACACAGAAGTATAAATA [CACACA_site8739]", "gcPBM binding intensity (ln)": "7.61 ± 0.52"}, {"sequence": "AAAATATAGTTATCAATATATAATATTTTTTTTTTA [CACACA_negctrl_site459]", "gcPBM binding intensity (ln)": "7.11 ± 0.51"}, {"sequence": "TTATTAATATTGCATGCACACTATATAATAATTGAA [CACACA_site8258]", "gcPBM binding intensity (ln)": "8.74 ± 0.43"}, {"sequence": "TATAAATAGGCATATACACACTTTTAATATTCATAA [CACACA_site6123]", "gcPBM binding intensity (ln)": "7.67 ± 0.53"}, {"sequence": "ATTTTTCATATATATATATTAATATATATATATTAA [CACACA_negctrl_site1681]", "gcPBM binding intensity (ln)": "8.13 ± 0.28"}, {"sequence": "TTTGAACGAAAATACTCACACATATTTATAAACATT [CACACA_site5182]", "gcPBM binding intensity (ln)": "7.45 ± 0.56"}, {"sequence": "GTATTTTTAAATGACACACACATATATATATATATA [CACACA_site1662]", "gcPBM binding intensity (ln)": "9.35 ± 0.41"}, {"sequence": "TGAATATTTATACATGCACACTAAAATAAAGAATCT [CACACA_site5351]", "gcPBM binding intensity (ln)": "8.935 ± 0.035"}, {"sequence": "AAAAATATATTATATGTACACACAAAATTAAGGGAT [CACACA_site8384]", "gcPBM binding intensity (ln)": "8.35 ± 0.54"}, {"sequence": "AAAATTTCTTTTTTTTGTACATATATAATAATATAT [XGTACX_site7107]", "gcPBM binding intensity (ln)": "7.82 ± 0.39"}, {"sequence": "TTTTTTTTTTTTGAGTGTACTAAAATATTACCTTTT [XGTACX_site646]", "gcPBM binding intensity (ln)": "8.14 ± 0.91"}, {"sequence": "TGGAAAAATAGGCACACACACATATATACCTATATA [CACACA_site4843]", "gcPBM binding intensity (ln)": "8.06 ± 0.3"}, {"sequence": "AATATTATAAATGATACACACTTAAAATACACCCAC [CACACA_site5498]", "gcPBM binding intensity (ln)": 8.65}, {"sequence": "TGAATATTTACTTTAGCACACAATTTGTATTTGATT [CACACA_site960]", "gcPBM binding intensity (ln)": "8 ± 0.8"}, {"sequence": "AATATATTTTAATACACACACACATATATATATATA [CACACA_site5969]", "gcPBM binding intensity (ln)": "9.59 ± 0.42"}, {"sequence": "ATATGTATATAAATGTGTACTTATAAATATATATAT [XGTACX_site3250]", "gcPBM binding intensity (ln)": "8.8 ± 0.15"}, {"sequence": "TTTTTTTTAAATATCACACACATATAACATATTCTA [CACACA_site7687]", "gcPBM binding intensity (ln)": "7.74 ± 0.46"}, {"sequence": "TATAAATAAATGCGTACACACTAATAAAAAAAAAAA [CACACA_site4630]", "gcPBM binding intensity (ln)": "8.37 ± 0.18"}, {"sequence": "GAAATAGAGAAACACACACACATATATTTATGTATT [CACACA_site3967]", "gcPBM binding intensity (ln)": "7.51 ± 0.47"}, {"sequence": "ATAAAAATAAAAAGATGTACGTATTTTTTTTTTTTT [XGTACX_site5329]", "gcPBM binding intensity (ln)": "8.13 ± 0.33"}, {"sequence": "CATTATTATGATAGTTGTACAATTTTTATAAAAAAT [XGTACX_site4411]", "gcPBM binding intensity (ln)": "7.93 ± 0.35"}, {"sequence": "ATATTATTATAAACTTCACACATTTTATGGGTTTTT [CACACA_site4631]", "gcPBM binding intensity (ln)": "7.49 ± 0.61"}, {"sequence": "TATATTATTTATATTTGTACACAGCGATATGAAATA [XGTACX_site987]", "gcPBM binding intensity (ln)": "7.93 ± 0.36"}, {"sequence": "TACAATTTAAAACACACACACAATAATACATATATA [CACACA_site1251]", "gcPBM binding intensity (ln)": "7.92 ± 0.4"}, {"sequence": "CATAAGCACAAGCACAAGCACACATTTATATATATA [CACACA_site882]", "gcPBM binding intensity (ln)": "8.72 ± 0.39"}, {"sequence": "CGCATATTTTATGTTTGTACTCATATGAATATCATA [XGTACX_site4717]", "gcPBM binding intensity (ln)": "7.58 ± 0.36"}, {"sequence": "TTGTATATATTAAATTGTACTTATTTTTTGTATATA [XGTACX_site3251]", "gcPBM binding intensity (ln)": "7.59 ± 0.28"}, {"sequence": "GGATAAAATGCTACGAGTACATAAGCATTTTTCCCT [XGTACX_site7796]", "gcPBM binding intensity (ln)": "8.04 ± 0.36"}, {"sequence": "TATAAACATATAAAAAGTACATACCAATTAATATTA [XGTACX_site967]", "gcPBM binding intensity (ln)": "7.54 ± 0.45"}, {"sequence": "AATATATTCATCATATCAATATTGTCAAGCAAACGA [TGCATGCA_negctrl_site37]", "gcPBM binding intensity (ln)": "7.58 ± 0.59"}, {"sequence": "TATTCTGTGTATAAAAGTACAAATATTTAAATGTAT [XGTACX_site8234]", "gcPBM binding intensity (ln)": "7.92 ± 0.41"}, {"sequence": "TCTTTTAAAAATATAAAAAGGAATATATAAAAATGT [CACACA_negctrl_site332]", "gcPBM binding intensity (ln)": "8.22 ± 0.3"}, {"sequence": "GAATTTATTTTATTTTCACACACAAAAATAAATATC [CACACA_site8762]", "gcPBM binding intensity (ln)": "7.97 ± 0.53"}, {"sequence": "AATAAATAGATATATACACACATATATGTGTACATA [CACACA_site7476]", "gcPBM binding intensity (ln)": "7.83 ± 0.23"}, {"sequence": "TTATCCATTTTAATCACACATACTTTACTTTGGAAC [CACACA_site5584]", "gcPBM binding intensity (ln)": "7.68 ± 0.67"}, {"sequence": "AAAGGGGATATATGAACACACAAAAAAAAAATATAT [CACACA_site2896]", "gcPBM binding intensity (ln)": "8.02 ± 0.61"}, {"sequence": "TGTAGTCTGGAGAAACGTACACAGTATCTGGTAACA [XGTACX_site4938]", "gcPBM binding intensity (ln)": "7.62 ± 0.42"}, {"sequence": "TATTTATTACTATGTAAACACACATGCAATATATGT [CACACA_site8288]", "gcPBM binding intensity (ln)": "7.8 ± 0.61"}, {"sequence": "ATATTTAAAGAATAAGTGCAAAATGTAATTAATTTT [GTGCAC_site9901]", "gcPBM binding intensity (ln)": "10 ± 0.29"}, {"sequence": "TATATTTTATAAAAAAGTACACATGAAAATGTATTT [XGTACX_site5889]", "gcPBM binding intensity (ln)": "7.79 ± 0.42"}, {"sequence": "AAATTTTATTATAGCAGTACAATATAATATTATTAA [XGTACX_site1971]", "gcPBM binding intensity (ln)": "7.82 ± 0.22"}, {"sequence": "TTTTTTCCTTTTAATTGTACACAGATATAATATATT [XGTACX_site2230]", "gcPBM binding intensity (ln)": "8.03 ± 0.4"}, {"sequence": "AAATATTTTTTTTCTACACACATACAAATATAGATT [CACACA_site7164]", "gcPBM binding intensity (ln)": "7.89 ± 0.79"}, {"sequence": "ATGCCCCATATAAACACACAAATAAAAAGAATATAC [CACACA_site7292]", "gcPBM binding intensity (ln)": "8.26 ± 0.64"}, {"sequence": "TATCATTTTATTATTCTACACACTTATCTATAATTA [CACACA_site7894]", "gcPBM binding intensity (ln)": "7.74 ± 0.49"}, {"sequence": "TTTTTTTTTTTTTTTGCATGTTGTTTAATGTATTGT [TGCATGCA_site772]", "gcPBM binding intensity (ln)": "8.11 ± 0.59"}, {"sequence": "AAATAAGAGCGTAGCACACACGCATTTTATAAATGT [CACACA_site741]", "gcPBM binding intensity (ln)": "7.58 ± 0.69"}, {"sequence": "TGTTGATGATATTACACACCCAATGAGAAAAGGAAT [CACACA_site2072]", "gcPBM binding intensity (ln)": "8.14 ± 0.7"}, {"sequence": "TTTTACAAAATAAAAATATAGAATACGGTAAATTAT [GTGCAC_negctrl_site40]", "gcPBM binding intensity (ln)": "7.87 ± 0.73"}]}]}
